The campaign covered roughly 48,000 compounds. About 1,200 (2.5%) were called active. Another 2% or so got no clear call; they are omitted.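 The calls were made as follows: active = activation of at least 60% and not above a set upper limit (about 1 call in 100 departs from these limits); inconclusive = activation of 40% to 60%, or above that upper limit; inactive = activation under 40%.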 This is one part of the list.
Target: Probable G-protein coupled receptor 32 (Homo sapiens) (UniProt O75388)
Test: qHTS for Agonists of Human Resolvin D1 Receptor DRV1; also: 0% is about no effect
Conditions: CHO-K1 GPR32 beta-arrestin PathHunter luminescence, 90 min; at 76.9 µM; hits give high values; zero percent set by DMSO-only wells
Procedure, shortened: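 Luminescent readout of beta-Gal complementation quantifies ligand-induced beta-arrestin association with GPR32 in CHO-K1 cells; 90 min compound incubation at 37 °C, detection 1 h at room temperature.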

UniProt O75388, sequence (O75388 whole entry, looked up): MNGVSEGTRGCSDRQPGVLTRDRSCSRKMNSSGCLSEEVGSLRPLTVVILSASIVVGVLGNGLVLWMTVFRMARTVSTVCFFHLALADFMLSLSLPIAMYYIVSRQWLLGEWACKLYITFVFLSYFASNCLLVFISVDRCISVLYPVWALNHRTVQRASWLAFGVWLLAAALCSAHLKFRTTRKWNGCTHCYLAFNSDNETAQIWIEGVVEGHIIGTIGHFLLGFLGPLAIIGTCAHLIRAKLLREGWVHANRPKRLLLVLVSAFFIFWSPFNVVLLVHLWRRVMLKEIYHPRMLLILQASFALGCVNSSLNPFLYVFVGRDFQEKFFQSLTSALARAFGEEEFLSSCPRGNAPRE

activation, inactive:
CCOC(=O)c1sc2ncn(CC(=O)Nc3cc(Cl)ccc3C)c(=O)c2c1C -8.94%
CC(=O)Nc1cccc(NC(=O)CSc2nccn2Cc2ccc3c(c2)OCO3)c1 -8.73%
CC(=O)c1ccc(N2CCN(C(=O)c3cc(S(=O)(=O)N4CCCCCC4)cn3C)CC2)cc1 4.56%
Cc1cccc(NC(=O)CSc2ccc(-c3sc(-c4ccccc4)nc3C)nn2)c1C -11.9%
Cc1cc(C(=O)Nc2c(C)cccc2C)n(-c2ccccc2)n1 -16.5%
CC(C)CCN(C(=O)Nc1ccc(Cl)c(Cl)c1)C1CCN(C(C)C)CC1 -19.7%
O=C(OCc1cc(=O)n2nc(-c3cccs3)sc2n1)c1cccc(F)c1 0.848%
COCCCNC(=O)c1ccc(Cn2c(SCc3ccc(F)cc3)nc3cccnc32)cc1 -7.72%
COc1ccc(CCNc2nc3c(-c4cccc(C(F)(F)F)c4)nnn3c3ccccc23)cc1OC -4.51%
Cc1ccc(CN2CCCn3nc(C(=O)NCc4ccc(N(C)C)cc4)cc3C2=O)cc1 -5.07%
Clc1ccc(-c2cc3ncc4c(n3n2)-c2ccccc2OC4)cc1 -6.55%
O=C(Nc1ccccc1-c1nc2ccccc2s1)c1ccc(F)cc1 -0.627%
CC1CCN(c2nc(-c3ccc(C(C)(C)C)cc3)nc3ccccc23)CC1 4.31%
O=C(CSc1nc2ccsc2c(=O)n1-c1ccc(Cl)cc1)NCc1ccc(Cl)cc1 -0.935%
CC(C)CNC(=O)Nc1cc(C(=O)NCc2ccc(C(C)C)cc2)ccc1N1CCCC1 -32.5%
CCOc1ccc(NC(=O)c2cc3cc(C)ccc3n2C)cc1 9.88%
CCOc1ccc(NC(=O)c2oc3ccccc3c2NC(=O)C(C)(C)C)cc1 -31.8%
COc1ccccc1NC(=O)CSc1oc(-c2ccco2)nc1S(=O)(=O)c1ccc(C)cc1 -21.1%
COc1ccc(CCNC(=O)c2c(O)nc3ccccn3c2=O)cc1OC -5.36%
O=C(CC1N=C2c3ccccc3N=C(SCC(=O)Nc3ccc(F)cc3)N2C1=O)NCc1ccco1 (configuration not stated) -13.7%
CCOc1ccc2nc(N3CCCC(C(=O)Nc4ccc(OC)cc4)C3)sc2c1 (configuration not stated) -5.12%
COc1cc(Nc2ncc3c(n2)CCN(Cc2ccc(OC(C)C)c(OC)c2)C3)cc(OC)c1 -4.34%
Cc1ccc(C(=O)Nc2nnc(S(=O)(=O)N(C)Cc3ccc(Cl)cc3)s2)cc1 0.742%
CCc1nn2c(=O)cc(COC(=O)c3ccc(NC(=O)COc4ccccc4C)cc3)nc2s1 -0.955%
COc1ccc(NC(=O)c2csnn2)cc1Cl -10.1%
Cc1ccc(Cc2cnc(NC(=O)c3ccc4c(c3)CC(c3ccccc3)OC4=O)s2)cc1 (configuration not stated) 9.75%
O=C(NC1CC(=O)N(c2ccc(F)cc2)C1)C1CCCC1 (configuration not stated) -5.41%
Cc1c(C(=O)Nc2ccc(F)cc2F)oc2c1-c1nn(Cc3c(F)cccc3Cl)cc1CC2 -21.2%
N#Cc1ccccc1NC(=O)CSc1nc(-c2ccccc2)cc(C(F)(F)F)c1C#N 11.4%
CCc1ccc(N2CC(c3nnc(NC(=O)c4ccco4)s3)CC2=O)cc1 (configuration not stated) -1.39%
CCOC(=O)c1c(NC(=O)c2ccc(C)cc2)sc2c1CCCCC2 25.2%
COc1ccc(C)cc1NC(c1nnc(-c2ccccc2)o1)c1ccc(F)cc1Cl (configuration not stated) -39.4%
CC(=O)c1ccc(S(=O)(=O)Nc2ccc(-c3cn4c(C)csc4n3)cc2)cc1 -25.5%
COc1cc(Cl)c(C)cc1NC(=O)c1cc(S(=O)(=O)N2CCCC2)ccc1F 0.851%
Cc1cc(NC(=O)c2ccccc2F)ccc1-c1nc2ccccc2s1 -0.713%
Cc1ccc(-n2cnc3cc(C(=O)NCCC4=CCCCC4)ccc32)c(C)c1 -2.42%
CCOC(=O)c1c(NC(=O)/C(C#N)=C/c2ccc(OC)cc2)sc2c1CCC2 -10.1%
CCOC(=O)Cc1ccc(NC(=O)N(Cc2ccc(OC)cc2)C2CCN(C(C)=O)CC2)cc1 -11.6%
COc1ccc(NC(=O)c2ccc3oc(=O)c(S(=O)(=O)c4ccc(F)cc4)cc3c2)cc1OC -2.36%
COc1ccc(C(=O)N2CC(=O)Nc3ccc(Br)cc3C2c2ccc(F)cc2)cc1OC (configuration not stated) -13.2%
Cc1cccc(C)c1OCC(=O)N(Cc1ccccc1F)C1CCS(=O)(=O)C1 (configuration not stated) -15%
CCc1ccc(NC(=O)c2sc(-n3nc(C)c(CCC(C)C)c3C)nc2C)cc1 -1.27%

— PubChem BioAssay AID1346428 (National Center for Advancing Translational Sciences (NCATS), 2018)
